Over roughly 33,000 sequences, “E-score (-0.5 to 0.5)” has its median near -0.012; the highest 2% begin near 0.27. This is one part of the list.
Each sequence was assayed against T1, Vhr1 (UniProt P40522) (assay: PBM E-score (8-mer binding enrichment) (E-score (-0.5 to 0.5)); higher = stronger / more preferred TF binding; most listed sequences are background and not binding sites). Settings: protein concentration: 200 nM; construct: GST-full length.
T1 sequence: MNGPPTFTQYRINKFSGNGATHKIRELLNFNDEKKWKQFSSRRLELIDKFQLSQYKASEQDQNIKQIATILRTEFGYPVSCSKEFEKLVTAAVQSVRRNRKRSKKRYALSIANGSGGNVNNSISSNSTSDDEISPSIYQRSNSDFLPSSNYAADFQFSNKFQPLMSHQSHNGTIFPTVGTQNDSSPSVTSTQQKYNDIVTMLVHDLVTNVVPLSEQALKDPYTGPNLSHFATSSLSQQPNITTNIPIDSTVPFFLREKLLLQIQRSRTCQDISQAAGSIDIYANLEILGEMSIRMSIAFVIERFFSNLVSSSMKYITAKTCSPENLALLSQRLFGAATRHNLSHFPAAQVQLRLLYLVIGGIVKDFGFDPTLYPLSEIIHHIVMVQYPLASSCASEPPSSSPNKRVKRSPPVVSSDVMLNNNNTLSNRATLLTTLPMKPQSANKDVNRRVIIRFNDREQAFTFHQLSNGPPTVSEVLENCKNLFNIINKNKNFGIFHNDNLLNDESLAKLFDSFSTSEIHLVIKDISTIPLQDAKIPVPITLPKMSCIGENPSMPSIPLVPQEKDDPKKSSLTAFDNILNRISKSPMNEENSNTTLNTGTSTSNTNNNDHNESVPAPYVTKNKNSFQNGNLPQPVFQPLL
Method in brief: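 For each ungapped eight-base word taken together with its reverse complement, the Universal PBM Analysis Suite assigned an E-score. Binding data came from GST-tagged yeast transcription factors, applied at about 100-200 nM, on universal all-10-mer Agilent arrays made double-stranded by primer extension. Fluorescent anti-GST marked bound protein, and scans were normalised with masliner.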

Row | Sequence | PBM E-score
1 | CAGATGAA | 0.0161
2 | AACAGCCG | -0.0956
3 | AAGCTCAC | -0.0795
4 | AGATGGCT | 0.0661
5 | CCCCTCGG | -0.156
6 | ACCACGAC | 0.181
7 | GCTTGCGA | 0.295
8 | ATTCATTG | 0.0738
9 | CTGATCCC | -0.0802
10 | CTACATAG | 0.113
11 | GACCCGCC | 0.322
12 | ATAAGTGA | 0.0303
13 | AGCTGCCC | 0.0494
14 | AGCGTAGA | -0.118
15 | AATCAGGA | 0.107
16 | GCCAATAC | -0.136
17 | ATCACATG | 0.139
18 | ACAACGGA | 0.0332
19 | CCCCCTTC | -0.248
20 | CAACATTC | -0.0974
21 | TGCCACAA | 0.0692
22 | CGTTACGC | -0.11
23 | CTAAAAGC | -0.243
24 | AAATGTTC | -0.188
25 | CTTTGAGA | -0.273

Row | Sequence | PBM E-score
26 | ATTCCGCA | -0.0228
27 | AACCCATG | 0.161
28 | AAGAGCAT | -0.179
29 | ACATGGTG | 0.225
30 | ACGGGACC | -0.239
31 | CTCGAGGA | 0.0193
32 | ATGGCAAG | -0.0799
33 | AGTATCAG | 0.017
34 | AGCGCTTC | -0.0413
35 | CCCGAACG | -0.0599
36 | CAAAATGG | -0.0625
37 | TAACGGAA | -0.0153
38 | CACTTGGG | -0.0585
39 | ACCCGGGT | 0.0435
40 | AACTCGAA | -0.242
41 | AGCTCATC | 0.0918
42 | CGCAGTAC | 0.0987
43 | GACGGGCA | -0.0539
44 | TCGCCTAA | 0.0314
45 | CCTAACAG | -0.00688
46 | ACGTTATG | -0.0459
47 | CATGGCTA | 0.224
48 | GCTTATTA | 0.00965
49 | ACCGTGAG | 0.0635
50 | CTAGATCA | -0.0375

Row | Sequence | PBM E-score
51 | TTAAGGAA | -0.195
52 | ACACGAAG | 0.175
53 | AGGAAAGG | -0.33
54 | CGTTCAAC | -0.0189
55 | CTTGCTGC | -0.113
56 | GATGCAAC | -0.174
57 | ATACGAGG | -0.0491
58 | AGCCGCGA | 0.211
59 | GGACGATA | -0.176
60 | CGTCGCGC | 0.0614
61 | ACTCGCCG | 0.306
62 | CATCCCGC | 0.0523
63 | CAGACTCA | 0.27
64 | GTACACCA | 0.104
65 | GGACAGAA | -0.0334
66 | GATTCCGA | 0.287
67 | AAACTAGT | 0.049
68 | ATGAGCGC | 0.0491
69 | AAAGATTA | -0.109
70 | CGCTCTTC | -0.0255
71 | GCAGGACC | -0.204
72 | CCACTATA | 0.0571
73 | GTTTCCGA | -0.0865
74 | CCCATTCG | 0.00579
75 | GCCGGAGC | -0.0858

Row | Sequence | PBM E-score
76 | GAAATGAC | 0.184
77 | AATTTTGC | -0.269
78 | AAGCCCTG | -0.0175
79 | AATATGCG | 0.0679
80 | CCTATTAG | -0.167
81 | CCCCATAA | -0.199
82 | CAGCATCG | -0.0269
83 | AGGGATTC | -0.111
84 | CGCTGGCA | -0.0134
85 | CCATATGC | 0.146
86 | GATCTATA | -0.028
87 | ACCTGTCC | -0.255
88 | CTGGCCAC | 0.0647
89 | CAAACCCG | -0.0955
90 | AGTTAGCC | -0.0741
91 | GGAACTGA | 0.0413
92 | ACGGATAG | 0.0733
93 | ACGGCCGA | 0.0328
94 | CAGCGTCG | 0.111
95 | ATGTAAGG | -0.0958
96 | CCAGAGCC | -0.0954
97 | CGCTTCTC | -0.0685
98 | GACTAATA | 0.222
99 | AGAATGCC | -0.23
100 | TAGAAATA | -0.22

Row | Sequence | PBM E-score
101 | AGTGAACA | 0.0449
102 | TGGTCGAA | -0.256
103 | GATTTGTA | 0.0813
104 | GTTGTTGA | 0.127
105 | CGCTTTAG | -0.115
106 | ACCGACGT | 0.0119
107 | ATCTACTG | 0.0599
108 | GCACGTTA | -0.141
109 | CATGTGGG | 0.151
110 | AACGGTTC | -0.149
111 | CACAGTGA | 0.175
112 | ACCTGTTC | -0.00327
113 | AAAGACAA | -0.0425
114 | CCGGCAAA | -0.0456
115 | AGCACAAT | 0.069
116 | ACACCATC | 0.2
117 | GTAATAAA | 0.0464
118 | GTCAGTTA | -0.0868
119 | CATGTTTA | 0.0112
120 | CCCAGGCG | -0.00747
121 | CTCTTCTC | -0.158
122 | CATTCACA | 0.00907
123 | ACTTGCTC | -0.057
124 | ACCATAAT | 0.214
125 | CGTCGTAA | -0.116

Row | Sequence | PBM E-score
126 | CACAGATC | 0.0986
127 | AATGGGTC | 0.075
128 | CCGATCCC | -0.203
129 | GCGCCATA | -0.0832
130 | AGTTTGCA | 0.0611
131 | AAATGCAG | 0.0175
132 | TCTTGCCA | -0.0826
133 | TCAGGGAA | -0.135
134 | CAACTTCC | 0.014
135 | ACCTAGTG | 0.146
136 | AGAGACTA | -0.054
137 | CACAGCTC | 0.0991
138 | AAGATTGG | -0.035
139 | GGCACGAC | -0.014
140 | AAATTCTG | -0.0457
141 | CAGTGACG | 0.0292
142 | GCTGTTAA | -0.115
143 | ACGCGTTG | -0.0506
144 | CCGTCCTA | -0.135
145 | ACAGCTAT | -0.149
146 | GTACCAAC | 0.0401
147 | ATCGAAAC | 0.0206
148 | GCCTAAAA | -0.168
149 | CCTGCGCA | -0.151
150 | CAGGCCCA | -0.208

Row | Sequence | PBM E-score
151 | ACGCTGAC | 0.128
152 | CTTACGCC | -0.019
153 | ATCGGGTA | -0.0136
154 | TACATCGA | 0.142
155 | CCAGTTCG | -0.0499
156 | AGGAATCC | 0.119
157 | TATGAAGA | -0.0555
158 | GCATTTTA | -0.141
159 | AAGCAATT | -0.103
160 | AGATGTGA | 0.233
161 | CATCGACC | 0.0173
162 | GAATGATA | 0.213
163 | AAAACTCA | -0.00882
164 | ACGGCACT | -0.0791
165 | CGTGTGAG | 0.23
166 | AACTAAAC | 0.0617
167 | CGCCGGAG | -0.0128
168 | ATCTAAAT | 0.0357
169 | CTTCGGTC | 0.0799
170 | CTTTCGCA | -0.136
171 | CACGAGGC | 0.00213
172 | CGGCAAAA | -0.198
173 | CGGTCGTA | -0.0601
174 | GCAAAAGC | -0.251
175 | GGGGTCCA | -0.229

Row | Sequence | PBM E-score
176 | ACGAGGCA | -0.0723
177 | CAAGGTAG | -0.0447
178 | GCCATCGA | 0.0619
179 | CAGGAGGC | -0.153
180 | ACTCCTTG | 0.149
181 | AAATACGA | -0.0441
182 | ACGCTACC | -0.271
183 | ATTTTATC | -0.13
184 | AGAGGCCC | -0.181
185 | AGCGATTC | 0.168
186 | GCCAACCC | -0.144
187 | GAGGTTAA | -0.247
188 | ATCGTGAC | 0.113
189 | CAATTACC | -0.132
190 | ATTCTCGA | 0.17
191 | GCTTAGTA | -0.171
192 | CCATAGTA | 0.225
193 | AGTGAACG | -0.103
194 | CTGCTACC | -0.0378
195 | ATGTTAAA | -0.133
196 | CATTGCCC | 0.0302
197 | ACGGATGG | 0.102
198 | ACGAGGGC | -0.0718
199 | GCCTCATA | -0.11
200 | AGTAATCC | 0.0334

Row | Sequence | PBM E-score
201 | AGGGCGAG | -0.0205
202 | GAAGAGTC | 0.194
203 | CCCTGATA | -0.179
204 | CGGTAAAG | -0.151
205 | CTGGACCC | -0.213
206 | ACGATCTA | -0.0658
207 | ACTCAAGC | 0.0286
208 | GATCGCAC | 0.0502
209 | ACTGGTCG | 0.0753
210 | GACAGCAA | -0.0406
211 | AATGAGCT | -0.098
212 | ATCGCAAC | 0.072
213 | AATATGCA | -0.0315
214 | ATCAGACC | 0.0881
215 | GATGTAGC | -0.0956
216 | GGAAGTCC | -0.212
217 | CTGATTCA | 0.341
218 | CAGTTGGA | -0.0496
219 | GACTATCA | 0.0818

From the supplement of paper PMC3334620
